Test results published in patent US20240392016A1 (Sanofi, published 2024).
“And” between values parts separate entries of the source, which are not always exact repeats. Identical values can stand only once.

Legend:
[1] = target: T1, cell surface CD123 on human AML cells (human, UniProt P26951 19-378); test: cell-based or functional assay
T1 sequence (looked up): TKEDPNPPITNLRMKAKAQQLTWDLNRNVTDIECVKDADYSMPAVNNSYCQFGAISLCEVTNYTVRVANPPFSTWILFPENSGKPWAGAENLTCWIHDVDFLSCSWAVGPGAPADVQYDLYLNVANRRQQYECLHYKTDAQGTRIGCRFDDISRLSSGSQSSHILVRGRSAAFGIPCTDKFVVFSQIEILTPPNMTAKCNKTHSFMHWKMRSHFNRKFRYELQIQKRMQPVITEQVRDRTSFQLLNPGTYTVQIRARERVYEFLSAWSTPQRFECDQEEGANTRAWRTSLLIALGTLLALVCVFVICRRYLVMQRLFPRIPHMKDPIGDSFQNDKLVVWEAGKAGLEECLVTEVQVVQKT

[2] = target: T2, human CD123 (human, UniProt P26951 19-305); test: KD2, CD123 binding affinity fixed in the in vitro PK/PD model; source: internal measurement for humans, method not stated
T2 construct: also called IL-3Ra; interleukin-3 receptor alpha chain
T2 sequence: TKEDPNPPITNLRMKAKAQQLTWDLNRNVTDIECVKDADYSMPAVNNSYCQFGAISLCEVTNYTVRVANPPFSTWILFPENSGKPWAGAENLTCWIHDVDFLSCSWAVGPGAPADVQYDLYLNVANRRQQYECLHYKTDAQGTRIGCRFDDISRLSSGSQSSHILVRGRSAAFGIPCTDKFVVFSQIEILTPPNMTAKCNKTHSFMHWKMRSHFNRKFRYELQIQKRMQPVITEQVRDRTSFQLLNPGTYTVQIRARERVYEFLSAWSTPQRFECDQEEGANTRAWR

[3] = target: T3, human NKp46 (human, UniProt O76036 22-255, limits assumed); test: KD1, NKp46 binding affinity fixed in the in vitro PK/PD model; source: internal measurement for humans, method not stated
T3 construct: also called CD335; Natural cytotoxicity triggering receptor 1
T3 sequence: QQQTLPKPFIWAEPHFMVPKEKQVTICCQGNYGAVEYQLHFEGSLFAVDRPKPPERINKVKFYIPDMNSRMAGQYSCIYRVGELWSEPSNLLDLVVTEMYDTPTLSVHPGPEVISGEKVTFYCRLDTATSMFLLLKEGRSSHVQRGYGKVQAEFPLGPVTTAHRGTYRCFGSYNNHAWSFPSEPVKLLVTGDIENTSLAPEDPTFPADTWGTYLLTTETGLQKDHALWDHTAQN

[4] = target: T3, human NKp46; test: affinity measurement, method not stated in the example (mean ± SD)
[5] = target: T1, cell surface CD123 on human AML cells; test: cell-based or functional assay; remark: listed apart in the source
[6] = target: T4, NHP CD123 (nonhuman primate (cynomolgus monkey …)); test: KD2, CD123 binding affinity fixed in the in vivo NHP PK/PD model; source: internal data, method not stated
T4 construct: Neither the construct nor the assay is stated; also called CD123 (in vivo NHP PK/PD model)

B1: CD123 NKCE (bispecific antibody, human IgG1, kappa)
chain 1: DIVMTQSPDSLAVSLGERATINCESSQSLLSSGNQKNYLTWYQQKPGQPPKPLIYWASTRESGVPDRFSGSGSGTDFTLTISSLQAEDVAVYYCQNDYSYPYTFGQGTKLEIKRTVAAPSVFIFPPSDEQLKSGTASVVCLLNNFYPREAKVQWKVDNALQSGNSQESVTEQDSKDSTYSLSSTLTLSKADYEKHKVYACEVTHQGLSSPVTKSFNRGE[letters of human IgG1 Fc not shown]
chain 2: EVQLVQSGAEVKKPGESLKISCKGSGYSFTDYYMKWARQMPGKGLEWMGDIIPSSGATFYNQKFKGQVTISADKSISTTYLQWSSLKASDTAMYYCARSHLLRASWFAYWGQGTMVTVSSASTKGPSVFPLAPSSKSTSGGTAALGCLVKDYFPEPVTVSWNSGALTSGVHTFPAVLQSSGLYSLSSVVTVPSSSLGTQTYICNVNHKPSNTKVDKRV[letters of human IgG1 Fc not shown]TGSQVQLVQSGAEVKKPGSSVKVSCKASGYTFSDYVINWVRQAPGQGLEWMGEIYPGSGTNYYNEKFKAKATITADKSTSTAYMELSSLRSEDTAVYYCARRGRYGLYAMDYWGQGTTVTVSSASTKGPSVFPLAPSSKSTSGGTAALGCLVKDYFPEPVTVSWNSGALTSGVHTFPAVLQSSGLYSLSSVVTVPSSSLGTQTYICNVNHKPSNTKVDKRVEPKSCDKTHS
chain 3: DIQMTQSPSSLSASVGDRVTITCRASQDISNYLNWYQQKPGKAPKLLIYYTSRLHSGVPSRFSGSGSGTDFTFTISSLQPEDIATYFCQQGNTRPWTFGGGTKVEIKRTVAAPSVFIFPPSDEQLKSGTASVVCLLNNFYPREAKVQWKVDNALQSGNSQESVTEQDSKDSTYSLSSTLTLSKADYEKHKVYACEVTHQGLSSPVTKSFNRGEC
notes: also called NKp46-CD123_F25; trifunctional NK cell engager
Which “Cytotoxic activity by fresh NK cells against KG-1a (3000 CD123 sites/cell); geometric mean of EC50 rel” value [1] does the source give for B1 here?
Its value is 4530 pg/mL and 30.2 pM.

What about the “Cytotoxic activity by fresh NK cells against MOLM-13 (20,000 CD123 sites/cell); geometric mean of EC50 rel” value [1] of the same binder?
The value was 637 pg/mL and 4.2 pM.

And the “Cytotoxic activity by fresh NK cells against NB-4 (1800 CD123 sites/cell); geometric mean of EC50 rel” value [1]?
Its value is 435 pg/mL and 2.9 pM.

What about the Kd [2] of the same binder?
The Kd was 0.404 nM.

And the Kd [3]?
The Kd was 16.6 nM.

And the Kd [4]?
The Kd was 16.3 nM.

What about the “Cytotoxic activity against primary AML blasts with healthy donor NK cells as effectors; EC50 rel” value [5] of the same binder?
The value was 3.5 ng/mL and 23.2 pM.

And the Kd [6]?
Its Kd is 1.23 nM.
